# About 200 (0.062%) of roughly 320,000 compounds were called active. This list was built around the results that the source calls inconclusive (neither active nor inactive); the mix of calls is not that of the screen. Calls come from the whole dose curve; as a rule, active = well fitted activation curve with a large enough effect; inconclusive = small, poorly fitted or top-dose-only effect; inactive = no such curve, though single readings can be large or run the other way. No potency is given beside an inconclusive call; the fits are too rough.
# Experiment: qHTS assay for re-activators of p53 using a Luc reporter; note: nearly all actives have a fitted effect of over 45% in size; for activity change, positive = activation: % of control where 0% means no effect
# Conditions: H1299 p53-A138V BP100-luciferase reporter, luminescence, 24 h; series mostly up to 92.2 µM; activity change, positive = activation: at the top concentration
# How it was run: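 H1299 (p53-null), stable ts p53-A138V + BP100-Luc; 1000 cells/well, Opti-MEM/10% FBS; cpd 4 pt, 1:5; 24 h, 37 deg C, 5% CO2; detection reagent 10 min RT; luminescence.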
# Potency is the fitted concentration of half-maximal effect; tags give direction and shape of the fitted curve.
Compound,Potency,"activity change, positive = activation"
C/C(=N\NC(=O)CC(C)C)c1ccc(N2CCCCC2)cc1,"inconclusive [activator, partial curve, poor fit]",–
C=C(C)CSc1nncn1/N=C/c1ccc(OC)cc1,"inconclusive [activator, partial curve, poor fit]",–
COc1ccnc(CSC(N)=Nc2ccccc2OC)c1,"inconclusive [activator, partial curve, poor fit]",–
Cc1cccc(C2c3[nH]c4ccccc4c3CCN2C(=O)c2cc(CC(C)C)[nH]c(=O)n2)n1 (centres undefined),–,inactive: -3.17%
Clc1nc(Nc2ccccc2)nc(Nc2ccccc2)n1,"inconclusive [activator, partial curve, poor fit]",–
CN1CCc2c(sc(/N=C/c3cc(Cl)ccc3O)c2C#N)C1,"inconclusive [activator, full curve, poor fit]",–
Cc1ccc(S(=O)(=O)/N=C(/c2ccc(F)cc2)N2CCCCC2)cc1,–,inactive: -5.05%
CCCNC(=O)OCCC12CC3CC(CC(C3)C1)C2,"inconclusive [activator, partial curve, poor fit]",–
CC(C)C(=O)NC(NC(=S)Nc1ccc(S(N)(=O)=O)cc1)C(Cl)(Cl)Cl (centres undefined),–,inactive: -3.17%
Cc1ccc(CNC(=O)C2CC(c3cccc([N+](=O)[O-])c3)=NO2)o1 (centres undefined),"inconclusive [activator, partial curve, poor fit]",–
Cc1nc2ccc(NC(=O)c3cc(Cl)ccn3)cc2s1,"inconclusive [activator, partial curve, poor fit]",–
Nc1cc(C(F)(F)F)ccc1Nc1ccccc1,"inconclusive [activator, single point]",–
CCCOc1cccc(C(=O)NCCCNC(=O)c2cccnc2)c1,"inconclusive [activator, single point]",–
CCCCN(C)CC(O)Cn1cc(/C=C/C(=O)c2ccc(OCC)cc2)c2ccccc21 (centres undefined),–,inactive: -11.8%
O=C(NCCc1ccccc1)c1ccc(-c2ccccc2Cl)o1,"inconclusive [activator, partial curve, poor fit]",–
Cc1cccc(NC(=O)NC2CCCc3ccccc32)c1 (centres undefined),–,inactive: 0.199%
COc1ccccc1N1CCN(C(=O)CCNC(=O)c2ccco2)CC1,"inconclusive [activator, full curve, poor fit]",–
O=C(c1cccn2c(=O)c3ccccc3nc12)N1CCN(Cc2ccc3c(c2)OCO3)CC1,–,inactive: -2.44%
COC(=O)c1ccc(CNC(=O)c2ccc3c(c2)OCCO3)cc1,"inconclusive [activator, single point]",–
